Source: the BET-seq Pho4 binding data (Le et al. 2018)
The other results are listed elsewhere or left out. The energies were worked out here from pooled read counts, against the library average; single values are noisy.

target: T1, Pho4 (S. cerevisiae) (UniProt P07270); experiment: relative binding free energy (BET-seq); higher = weaker binding; settings: reference: library average
T1 sequence: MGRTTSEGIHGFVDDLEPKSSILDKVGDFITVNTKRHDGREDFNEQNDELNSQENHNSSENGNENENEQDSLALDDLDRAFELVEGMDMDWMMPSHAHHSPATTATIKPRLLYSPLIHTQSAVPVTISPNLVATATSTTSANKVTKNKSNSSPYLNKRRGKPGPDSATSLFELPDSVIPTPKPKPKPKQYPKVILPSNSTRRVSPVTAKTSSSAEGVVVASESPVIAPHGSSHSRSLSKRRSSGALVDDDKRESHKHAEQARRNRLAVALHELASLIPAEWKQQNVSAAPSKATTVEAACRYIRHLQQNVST

Sequence	relative binding free energy [kcal/mol]
TCGTTCACGTGAGCGG	0.4
GTTTTCACGTGTGCAA	0.18
CGTCGCACGTGGGGTA	-0.22
AGGTACACGTGTGGCG	0.15
TGTGCCACGTGGGTCG	-0.23
GACTTCACGTGAGGTG	0.53
TAAAACACGTGTTTTG	0.05
ACGTTCACGTGGCGTG	0.04
TTCTTCACGTGTGCGG	0.3
GGTGCCACGTGTTGGG	0.01
GTTCACACGTGGATGG	0.32
TTGTACACGTGTTATT	-0.01
TTCATCACGTGAGTTA	0.34
GGGAACACGTGGTGAT	0.04
TATGTCACGTGGGAGG	-0.02
TTGAACACGTGTGAGG	0.11
GCGCGCACGTGTGGGG	-0.13
CGTTTCACGTGAATGT	0.39
TGAGTCACGTGTGCTT	0.24
TGGTACACGTGGTTAC	-0.04
GGGTTCACGTGCGGAT	0.33
ATAATCACGTGGTGCA	0.08
GGTCACACGTGGGTTC	0.07
TAGATCACGTGAGGTG	0.38
TCGGGCACGTGGGGCA	-0.3

Sequence	relative binding free energy [kcal/mol]
GAAGTCACGTGCGTTT	0.18
TTGCGCACGTGTGATT	0.02
CGCGGCACGTGGGGTA	-0.25
ATTAACACGTGGAGGG	0.04
TTTCTCACGTGGCTTG	0.21
GGACACACGTGTGTGG	-0.05
GTTAGCACGTGTAGTT	0.11
AAGTGCACGTGCATGT	-0.1
GGATGCACGTGAATGT	0.26
GCGTGCACGTGTGGGC	0.11
AGTCGCACGTGTTGGT	-0.04
GGATACACGTGTTATT	0.12
TGTTTCACGTGTCGTA	0.29
TGCTTCACGTGGCGGT	0.13
GTGTGCACGTGTGTAT	0.06
ACGTACACGTGGCGGG	-0.04
TAATGCACGTGGACGG	0.02
CGGAACACGTGATTGG	0.25
GGTGTCACGTGCTCGT	0.03
TTCAACACGTGATTTT	0.21
ATTAGCACGTGTGTCT	0.02
GGTTACACGTGATGAG	0.27
GTGAGCACGTGAGGGA	0.17
TCGTTCACGTGCGTGA	0.23
GGGCTCACGTGGGCGG	0.22

Sequence	relative binding free energy [kcal/mol]
TAGGTCACGTGGGTTG	-0.02
GAGTTCACGTGCATGA	0.45
CCGGTCACGTGGGGTA	0.08
CTGTTCACGTGTCGTT	0.19
AGTACCACGTGGGGGT	-0.37
AATTACACGTGCTTTG	0.02
GTGAGCACGTGGAGTC	0.05
TAAGGCACGTGGCGTA	-0.2
TGTTACACGTGATGAT	0.22
TCTTACACGTGTATAT	0.14
GGGTTCACGTGCGTTA	0.27
ACATTCACGTGTTTTA	0.3
AGTAGCACGTGTTACG	-0.11
AGAGTCACGTGATGCT	0.18
CGTAGCACGTGTTCGG	-0.02
ATCGGCACGTGAGCGT	0
TTTTTCACGTGATAGA	0.38
CGTGGCACGTGAAGTA	0.2
TCTGGCACGTGAGATG	0.27
GAATGCACGTGGGCGG	-0.02
AGTAGCACGTGGGTAC	-0.21
GAAGACACGTGTGGGC	0.03
ATGATCACGTGAGGGT	0.39
AATCTCACGTGTGAGG	0.32
TTATGCACGTGAATGT	0.13

Sequence	relative binding free energy [kcal/mol]
TTGAGCACGTGTTTCA	-0.07
CATAACACGTGGGTGG	-0.16
TTATACACGTGCGGGG	0.05
GTTGGCACGTGCGGTC	-0.2
GGCGACACGTGTGCGT	0.18
TAGCGCACGTGGTGCG	-0.08
GGGTACACGTGTTTGT	0.16
TGAGACACGTGGGGCG	-0.14
GTTTACACGTGAGATT	0.27
TAAGGCACGTGGTCAG	-0.12
TTAACCACGTGAGTTG	0.21
ATTATCACGTGATTAG	0.15
CTGATCACGTGTTATT	0.1
TTTAACACGTGATGTC	0.27
TAGAGCACGTGGCTGT	-0.29
TGTAACACGTGGTGAA	-0.12
TGAGTCACGTGGAAAG	0.13
GCTTGCACGTGATCGG	0.08
AATAGCACGTGGGGTT	-0.13
ATGCTCACGTGTGGCT	0.22
TTAACCACGTGGTTAT	-0.03
GGTGACACGTGGATGT	0.08
CGGGCCACGTGGTGGT	-0.15
GGGTTCACGTGTTGGA	0.34
GTCTTCACGTGTAAGT	0.32

Sequence	relative binding free energy [kcal/mol]
GGACTCACGTGTGGTA	0.25
GATGGCACGTGTTGGC	0
ATGTGCACGTGTATAA	-0.04
AGTACCACGTGGGGGG	-0.28
TGGGACACGTGGGCCT	-0.16
GGCGACACGTGGTGAT	0.11
TTTATCACGTGCAGGA	0.06
CCCTGCACGTGGGGGG	-0.32
GTTAACACGTGTGAAG	0.05
TCGATCACGTGGATGG	0.05
TGGAGCACGTGAAGAT	0.28
GGAAGCACGTGGTGTT	-0.13
GCGGGCACGTGGGGGA	-0.16
TCAGTCACGTGACGTG	0.21
AGGCTCACGTGTAATG	0.25
TGGTGCACGTGGTTAC	-0.15
TGGGGCACGTGCAGTT	-0.12
CGGCGCACGTGGGGTA	-0.28
CCTTGCACGTGGGTGG	-0.25
TCGTACACGTGGTGGG	0.06
GGCGTCACGTGTAGTA	0.13
TTCTTCACGTGGTGCT	0.16
CGTGTCACGTGGTATA	0.11
ATCTGCACGTGGGGTG	-0.14
GGCAGCACGTGGATGT	0.01

Sequence	relative binding free energy [kcal/mol]
GGTCGCACGTGTCCGG	0.1
TTTTTCACGTGTCGGT	0.4
CGTGTCACGTGAAGTT	0.13
AGGATCACGTGAGTGT	0.51
GCGTTCACGTGGGGAA	0.05
GGAGGCACGTGGGGTA	-0.2
TATATCACGTGGCGGG	0
GAATCCACGTGGGTGG	-0.11
TAGGGCACGTGCGAAG	-0.09
AAGTACACGTGCTGTG	-0.04
AATACCACGTGTTGGG	0.09
TGTAGCACGTGTCGAT	-0.17
GGCTGCACGTGGCTGT	-0.1
AGTTACACGTGCTGTT	0.11
TTGTGCACGTGCGCTG	-0.21
GGTTACACGTGCGGGA	0.18
GTTATCACGTGTCAAT	0.18
AGTGTCACGTGATAGA	0.18
TGGCGCACGTGTAGTG	0
TGTTGCACGTGTTGCG	-0.02
TCGTTCACGTGTATTG	0.11
